The list shows a part of the results. Rule as the data show it: active = 3.2 or more and inactive = the rest. Most of these values are background signal.
Each binder was assayed against SHP2 C-SH2 domain E139D (assay: enrichment score (SH2-bound / input frequency) (ratio); bacterial display of known human phosphotyrosine sites (pTyr-Var adds point mutants) read by sequencing; higher = stronger binding; tyrosines were phosphorylated by kinases first). Conditions: peptide library: pTyr-Var.
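Also: displayed peptides selected on beads carrying the immobilized SH2 domain, with library peptides lacking any tyrosine serving as negative controls.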

Enrichment score, inactive:
DRLPSYLDKVR [KRT12_Y139_A137P] 0.871
DRLASYQDKVR [KRT12_Y139_L140Q] 1.16
DRLASYRDKVR [KRT12_Y139_L140R] 0.76
DGLASYLDKVR [KRT12_Y139_R135G] 0.879
DILASYLDKVR [KRT12_Y139_R135I] 1.23
DRLASYLDKLR [KRT12_Y139_V143L] 1.11
LEIETYRRLRD [KRT12_Y429_L433R] 0.39
LEIETCRRLLD [KRT12_Y429_Y429C] 0.872
DRLASYLEKVR [KRT13_Y118] 0.943
DRLASYPEKVR [KRT13_Y118_L119P] 0.768
KIRDWYQRQRP [KRT14_Y151] 0.623
KICDWYQRQRP [KRT14_Y151_R148C] 0.625
QEITTYRRLLE [KRT14_Y415_A413T] 0.703
QEIATYRRLQE [KRT14_Y415_L419Q] 0.41
QEIATYPRLLE [KRT14_Y415_R416P] 0.671
QEIATYRPLLE [KRT14_Y415_R417P] 0.958
DRQASYLDKVR [KRT16_Y131_L128Q] 0.681
QEIATYRRLPE [KRT16_Y417_L421P] 0.62

These binders were tested against SHP2 C-SH2 domain wild-type in the same assay as above. Conditions: peptide library: pTyr-Var.

Enrichment score, inactive:
DRLPSYLDKVR [KRT12_Y139_A137P] 0.857
DRLASYQDKVR [KRT12_Y139_L140Q] 0.836
DRLASYRDKVR [KRT12_Y139_L140R] 0.624
DGLASYLDKVR [KRT12_Y139_R135G] 0.749
DILASYLDKVR [KRT12_Y139_R135I] 1.17
DRLASYLDKLR [KRT12_Y139_V143L] 0.983
LEIETYRRLRD [KRT12_Y429_L433R] 0.362
LEIETCRRLLD [KRT12_Y429_Y429C] 1.74
DRLASYLEKVR [KRT13_Y118] 0.808
DRLASYPEKVR [KRT13_Y118_L119P] 0.608
KIRDWYQRQRP [KRT14_Y151] 0.66
KICDWYQRQRP [KRT14_Y151_R148C] 0.712
QEITTYRRLLE [KRT14_Y415_A413T] 0.609
QEIATYRRLQE [KRT14_Y415_L419Q] 0.495
QEIATYPRLLE [KRT14_Y415_R416P] 0.538
QEIATYRPLLE [KRT14_Y415_R417P] 0.817
DRQASYLDKVR [KRT16_Y131_L128Q] 0.727
QEIATYRRLPE [KRT16_Y417_L421P] 0.503

Each binder was assayed against SHP2 N-SH2 domain L43F in the same assay as above. Conditions: peptide library: pTyr-Var.

Enrichment score, inactive:
DRLPSYLDKVR [KRT12_Y139_A137P] 1
DRLASYQDKVR [KRT12_Y139_L140Q] 0.953
DRLASYRDKVR [KRT12_Y139_L140R] 0.736
DGLASYLDKVR [KRT12_Y139_R135G] 0.813
DILASYLDKVR [KRT12_Y139_R135I] 1.37
DRLASYLDKLR [KRT12_Y139_V143L] 0.985
LEIETYRRLRD [KRT12_Y429_L433R] 0.453
LEIETCRRLLD [KRT12_Y429_Y429C] 1.35
DRLASYLEKVR [KRT13_Y118] 0.913
DRLASYPEKVR [KRT13_Y118_L119P] 0.723
KIRDWYQRQRP [KRT14_Y151] 0.576
KICDWYQRQRP [KRT14_Y151_R148C] 0.625
QEITTYRRLLE [KRT14_Y415_A413T] 0.488
QEIATYRRLQE [KRT14_Y415_L419Q] 0.521
QEIATYPRLLE [KRT14_Y415_R416P] 0.651
QEIATYRPLLE [KRT14_Y415_R417P] 0.869
DRQASYLDKVR [KRT16_Y131_L128Q] 0.737
QEIATYRRLPE [KRT16_Y417_L421P] 0.435

Each binder was assayed against SHP2 N-SH2 domain T42A in the same assay as above. Conditions: peptide library: pTyr-Var.

Enrichment score, inactive:
DRLPSYLDKVR [KRT12_Y139_A137P] 0.76
DRLASYQDKVR [KRT12_Y139_L140Q] 0.811
DRLASYRDKVR [KRT12_Y139_L140R] 0.57
DGLASYLDKVR [KRT12_Y139_R135G] 0.908
DILASYLDKVR [KRT12_Y139_R135I] 1.04
DRLASYLDKLR [KRT12_Y139_V143L] 1.06
LEIETYRRLRD [KRT12_Y429_L433R] 0.296
LEIETCRRLLD [KRT12_Y429_Y429C] 0.707
DRLASYLEKVR [KRT13_Y118] 0.841
DRLASYPEKVR [KRT13_Y118_L119P] 0.783
KIRDWYQRQRP [KRT14_Y151] 0.599
KICDWYQRQRP [KRT14_Y151_R148C] 0.504
QEITTYRRLLE [KRT14_Y415_A413T] 0.402
QEIATYRRLQE [KRT14_Y415_L419Q] 0.625
QEIATYPRLLE [KRT14_Y415_R416P] 0.596
QEIATYRPLLE [KRT14_Y415_R417P] 0.708
DRQASYLDKVR [KRT16_Y131_L128Q] 0.676
QEIATYRRLPE [KRT16_Y417_L421P] 0.5

Each binder was assayed against SHP2 N-SH2 domain T52S in the same assay as above. Conditions: peptide library: pTyr-Var.

Enrichment score, inactive:
DRLPSYLDKVR [KRT12_Y139_A137P] 0.943
DRLASYQDKVR [KRT12_Y139_L140Q] 0.76
DRLASYRDKVR [KRT12_Y139_L140R] 0.637
DGLASYLDKVR [KRT12_Y139_R135G] 0.879
DILASYLDKVR [KRT12_Y139_R135I] 1.38
DRLASYLDKLR [KRT12_Y139_V143L] 1.01
LEIETYRRLRD [KRT12_Y429_L433R] 0.379
LEIETCRRLLD [KRT12_Y429_Y429C] 1.02
DRLASYLEKVR [KRT13_Y118] 0.803
DRLASYPEKVR [KRT13_Y118_L119P] 0.868
KIRDWYQRQRP [KRT14_Y151] 0.692
KICDWYQRQRP [KRT14_Y151_R148C] 0.521
QEITTYRRLLE [KRT14_Y415_A413T] 0.435
QEIATYRRLQE [KRT14_Y415_L419Q] 0.676
QEIATYPRLLE [KRT14_Y415_R416P] 0.576
QEIATYRPLLE [KRT14_Y415_R417P] 0.821
DRQASYLDKVR [KRT16_Y131_L128Q] 0.682
QEIATYRRLPE [KRT16_Y417_L421P] 0.563

These binders were tested against SHP2 N-SH2 domain wild-type in the same assay as above. Conditions: peptide library: pTyr-Var.

Enrichment score, inactive:
DRLPSYLDKVR [KRT12_Y139_A137P] 0.932
DRLASYQDKVR [KRT12_Y139_L140Q] 0.829
DRLASYRDKVR [KRT12_Y139_L140R] 0.732
DGLASYLDKVR [KRT12_Y139_R135G] 1.06
DILASYLDKVR [KRT12_Y139_R135I] 1.49
DRLASYLDKLR [KRT12_Y139_V143L] 0.94
LEIETYRRLRD [KRT12_Y429_L433R] 0.418
LEIETCRRLLD [KRT12_Y429_Y429C] 2.34
DRLASYLEKVR [KRT13_Y118] 1.09
DRLASYPEKVR [KRT13_Y118_L119P] 0.745
KIRDWYQRQRP [KRT14_Y151] 0.561
KICDWYQRQRP [KRT14_Y151_R148C] 0.543
QEITTYRRLLE [KRT14_Y415_A413T] 0.623
QEIATYRRLQE [KRT14_Y415_L419Q] 0.557
QEIATYPRLLE [KRT14_Y415_R416P] 0.725
QEIATYRPLLE [KRT14_Y415_R417P] 0.949
DRQASYLDKVR [KRT16_Y131_L128Q] 0.728
QEIATYRRLPE [KRT16_Y417_L421P] 0.506
